For 87 compounds, inhibition results are on record in PubChem BioAssay AID1434 (Sanford-Burnham Center for Chemical Genomics, 2008).

Structures are written as SMILES. The list shows a part of the results. Shown are side measurements of this screen, not its main read-out; they come without a call. The list favours compounds with an active or inconclusive main result.

For this assay, the target named is Runt-related transcription factor 1 (Homo sapiens) + Core-binding factor subunit beta (Homo sapiens) (UniProt Q01196+Q13951). The assay can be described thus: inhibitors of RUNX1 Runt–CBFb-SMMHC binding, primary screen, biochemical, FRET, Cerulean-Runt, Venus-CBFb-SMMHC, uHTS (AID 1434).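 Also: 0% = DMSO wells and 100% = wells with excess untagged CBFb-SMMHC; inhibitors lower the FRET ratio by blocking Runt binding to CBFb-SMMHC.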 The settings on record: Cerulean-Runt/Venus-CBFb-SMMHC FRET ratio 530/480, 1 h; retest duplicate average; at 20 µM; stronger effect = higher value.
UniProt Q01196, sequence (Q01196 whole entry, looked up): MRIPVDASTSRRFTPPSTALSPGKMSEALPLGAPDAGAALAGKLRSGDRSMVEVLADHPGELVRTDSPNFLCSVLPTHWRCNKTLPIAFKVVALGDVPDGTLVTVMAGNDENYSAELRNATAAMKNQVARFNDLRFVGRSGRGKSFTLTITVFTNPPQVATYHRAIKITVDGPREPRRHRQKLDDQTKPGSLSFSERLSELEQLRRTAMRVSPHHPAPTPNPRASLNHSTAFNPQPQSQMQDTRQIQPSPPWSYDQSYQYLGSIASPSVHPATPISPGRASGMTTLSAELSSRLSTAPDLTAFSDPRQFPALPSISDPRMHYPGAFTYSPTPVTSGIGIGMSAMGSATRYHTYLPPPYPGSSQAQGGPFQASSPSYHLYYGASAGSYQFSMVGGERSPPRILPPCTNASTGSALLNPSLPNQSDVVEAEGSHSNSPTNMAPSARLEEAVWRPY
UniProt Q01196, sequence (Q13951 whole entry, looked up): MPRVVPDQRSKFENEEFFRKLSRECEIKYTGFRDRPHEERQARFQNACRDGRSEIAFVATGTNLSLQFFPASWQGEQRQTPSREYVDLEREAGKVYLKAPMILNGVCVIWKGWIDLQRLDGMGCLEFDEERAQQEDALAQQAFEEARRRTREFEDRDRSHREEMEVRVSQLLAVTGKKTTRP
Turning to `CC(C)OC(=O)c1c(N)n(CC2CCCO2)c2nc3ccccc3nc12` (configuration not stated), the inhibition (in general, the drop in the measured response relative to a control, in per cent) is 139%.

Turning to `CCC(=NCc1ccco1)c1c(O)n(C2CCCCC2)c(=O)[nH]c1=O`, the inhibition was determined as 120%.

As to `COCCNC(=O)c1c(NC(=O)c2ccco2)n(Cc2ccccc2)c2nc3ccccc3nc12`, the inhibition amounted to 105%.

In the case of `CCCCOCCCn1c(N)c(C(=O)OC(C)COC)c2nc3ccccc3nc21` (configuration not stated), the inhibition was 117%.

As to `COCCNC(=O)c1c(N)n(CCC(C)C)c2nc3ccccc3nc12`, the inhibition was determined as 104%.

Regarding `COc1ccc(-n2c(O)c(/C=C/C=Nc3ccccc3)c(=O)[nH]c2=O)cc1`, the inhibition worked out at 58.2%.

Consider `Cn1c(O)c(/C=N/NC(=O)c2ccncc2)c(=O)[nH]c1=S`, for which the inhibition is 73.8%.

`N#CC1=C(N)Oc2cc(O)ccc2C1c1ccc2c(c1)OCO2` (configuration not stated): the inhibition was determined as 70.6%.

As to `Cc1ccccc1-n1c(O)c(/C=N/NC(=O)c2ccccc2O)c(=O)[nH]c1=S`, the inhibition is 66.6%.

As for `CCOC(=O)c1c(N)n(Cc2ccco2)c2nc3ccccc3nc12`, the inhibition was 104%.

`CCCCn1c(N)c(C(=O)NCCN2CCOCC2)c2nc3ccccc3nc21`: the inhibition was found to be 91.2%.

With `CCCCCn1c(NC(=O)c2ccco2)c(C(=O)OCC)c2nc3ccccc3nc21`, the inhibition came to 104%.

Take `CCCNC(=O)c1c(N)n(Cc2ccco2)c2nc3ccccc3nc12`: the inhibition stood at 97.6%.

On to `O=C(O)CCC(=O)NCCC1=c2ccccc2=N/C1=C\c1c(O)n(Cc2ccc(F)cc2)c(=S)[nH]c1=O`, for which the inhibition was 87.9%.

`CCCCn1c(N)c(C(=O)OCC2CCCO2)c2nc3ccccc3nc21` (configuration not stated): the inhibition turned out to be 110%.

As for `O=c1[nH]c(=O)n(-c2ccccc2)c(O)c1/C=C/C=Nc1ccccc1`, the inhibition turned out to be 79.1%.

For `COCCCn1c(N)c(C(=O)OCCOC)c2nc3ccccc3nc21`, the inhibition stood at 129%.

With `COCCNC(=O)c1c(NC(=O)c2ccc(Br)o2)n(Cc2ccccc2)c2nc3ccccc3nc12`, the inhibition is 83.6%.

`COC(=O)c1c(N)n(Cc2ccc(OC)cc2)c2nc3ccccc3nc12`: the inhibition came to 132%.

As for `COCCOC(=O)c1c(N)n(Cc2ccccc2)c2nc3ccccc3nc12`, the inhibition was found to be 126%.

Turning to `O=c1[nH]c(O)c(/C=C2/C=CC(c3cc(Cl)ccc3Cl)=N2)c(=O)[nH]1`, the inhibition amounted to 183%.

As for `CC(C)CCn1c(N)c(C(=O)OCC2CCCO2)c2nc3ccccc3nc21` (configuration not stated), the inhibition stood at 123%.

In the case of `CCC(C)OC(=O)c1c(N)n(Cc2cccs2)c2nc3ccccc3nc12` (configuration not stated), the inhibition came to 109%.

Take `CCOC(=O)c1c(N)n(CCN2CCCCC2)c2nc3ccccc3nc12`: the inhibition was 105%.

As for `COc1ccc(CCNC(=O)c2c(N)n(CCN3CCOCC3)c3nc4ccccc4nc23)cc1`, the inhibition was determined as 122%.

On to `CCC(C)NC(=O)c1c(N)n(CC2CCCO2)c2nc3ccccc3nc12` (configuration not stated), for which the inhibition is 116%.

Take `CC(C)OCCCNC(=O)c1c(N)n(Cc2cccs2)c2nc3ccccc3nc12`: the inhibition amounted to 129%.

In the case of `CCOC(=O)c1c(N)n(Cc2ccc(OC)cc2)c2nc3ccccc3nc12`, the inhibition was 135%.

On to `Nc1c(C(=O)NCc2ccco2)c2nc3ccccc3nc2n1Cc1ccccc1`, for which the inhibition turned out to be 74%.

On to `CC(C)CNC(=O)c1c(N)n(Cc2ccco2)c2nc3ccccc3nc12`, for which the inhibition is 72.9%.

Turning to `CCCCn1c(O)c(/C=C/C=Nc2ccccc2)c(=O)[nH]c1=O`, the inhibition is 77.3%.

Turning to `CCCNC(=O)c1c(N)n(CC2CCCO2)c2nc3ccccc3nc12` (configuration not stated), the inhibition was determined as 86.2%.

Regarding `Nc1c(C(=O)OCC2CCCO2)c2nc3ccccc3nc2n1Cc1cccs1` (configuration not stated), the inhibition was determined as 103%.

For the compound `C[C@]12CC[C@@H]3c4ccc(O)c(O)c4CC[C@H]3[C@@H]1CC[C@@H]2O`, the inhibition is 59%.

In the case of `Cc1cccn2c(=O)c3cc(C(=O)N4CCC5(CC4)OCCO5)n(C)c3nc12`, the inhibition came to 63.8%.

Turning to `COCCCNC(=O)c1c(NC(=O)c2ccccc2Cl)n(Cc2ccccc2)c2nc3ccccc3nc12`, the inhibition stood at 64.4%.

Take `CCCCCn1c(N)c(C(=O)NCCN2CCOCC2)c2nc3ccccc3nc21`: the inhibition came out at 103%.

On to `CCOCCCn1c(N)c(C(=O)Nc2sc3c(c2C(=O)OC)CCCC3)c2nc3ccccc3nc21`, for which the inhibition came out at 97.8%.

As for `Nc1c(C(=O)NCCN2CCOCC2)c2nc3ccccc3nc2n1Cc1ccccc1`, the inhibition was found to be 70.6%.

With `O=c1[nH]c(=O)n(Cc2ccccc2)c(O)c1/C=C1\C=Nc2ccccc21`, the inhibition was 52.4%.

As for `N#Cc1c(/N=C/c2ccc(O)cc2O)sc2c1C1CCN2CC1`, the inhibition was found to be 136%.

With `COCCOC(=O)c1c(N)n(Cc2ccc(OC)cc2)c2nc3ccccc3nc12`, the inhibition came out at 123%.

`Nc1c(C(=O)NCc2ccco2)c2nc3ccccc3nc2n1Cc1ccc(F)cc1`: the inhibition was 84.7%.

Turning to `COCCCNC(=O)c1c(NC(=O)c2ccco2)n(Cc2ccccc2)c2nc3ccccc3nc12`, the inhibition was 127%.

As for `CCCCn1c(N)c(C(=O)NCc2cccs2)c2nc3ccccc3nc21`, the inhibition came out at 75.5%.

`CCCCn1c(O)c(/C=N/NC(=O)c2ccncc2)c(=O)[nH]c1=S`: the inhibition turned out to be 74.2%.

Regarding `N#Cc1c(Cl)nc(Cl)c2c1CCN(Cc1ccccc1)C2`, the inhibition was 51.9%.

As for `COCCCNC(=O)c1c(N)n(Cc2ccco2)c2nc3ccccc3nc12`, the inhibition was 70.6%.

With `C=CCn1c(O)c(/C=C/C=Nc2ccccc2)c(=O)[nH]c1=O`, the inhibition was found to be 74.9%.

As to `CCn1c(O)c(/C=N/NC(=O)c2ccncc2)c(=O)[nH]c1=S`, the inhibition was 75.6%.

Take `COc1ccc2c3c([nH]c2c1)C(C)NCC3` (configuration not stated): the inhibition was 70.6%.

In the case of `Nc1c(C(=O)NC2CCCC2)c2nc3ccccc3nc2n1CC1CCCO1` (configuration not stated), the inhibition amounted to 73.5%.

Regarding `COCCCn1c(N)c(C(=O)OC(C)COC)c2nc3ccccc3nc21` (configuration not stated), the inhibition stood at 143%.

On to `COc1ccc2c3c([nH]c2c1)C(C)=NCC3`, for which the inhibition was 71.5%.

Regarding `COc1ccc(Cn2c(N)c(C(=O)NCc3ccco3)c3nc4ccccc4nc32)cc1OC`, the inhibition was 78.7%.

`COc1ccc(N=Cc2c(O)n(-c3ccc(C)cc3)c(=O)[nH]c2=O)cc1`: the inhibition is 58.5%.

For `CCn1c(O)c(/C=N/NC(=O)c2ccccc2)c(=O)n(CC)c1=S`, the inhibition is 81.1%.

Take `COCCCn1c(N)c(C(=O)NCc2ccco2)c2nc3ccccc3nc21`: the inhibition was 84.7%.

Turning to `CC(C)c1ccc(-n2c(O)c(/C=N/NC(=O)c3ccccc3O)c(=O)[nH]c2=S)cc1`, the inhibition worked out at 70.9%.

For the compound `CCCCCCn1c(N)c(C(=O)NCCN2CCOCC2)c2nc3ccccc3nc21`, the inhibition stood at 114%.

Regarding `Nc1c(C(=O)NCCN2CCOCC2)c2nc3ccccc3nc2n1Cc1ccco1`, the inhibition stood at 89.1%.

`Cn1c(O)c(/C=C/C=Nc2ccccc2)c(=O)n(C)c1=O`: the inhibition was determined as 70.5%.

On to `CCCCn1c(NS(=O)(=O)c2ccc(C)cc2)c(C(=O)OCC)c2nc3ccccc3nc21`, for which the inhibition is 71.5%.

For the compound `CCC(C)n1c(O)c(/C=N/NC(=O)c2ccncc2)c(=O)[nH]c1=S` (configuration not stated), the inhibition was 71.6%.

As for `Nc1c(C(=O)NCC2CCCO2)c2nc3ccccc3nc2n1Cc1ccco1` (configuration not stated), the inhibition amounted to 70.6%.

Regarding `CCCCNC(=O)c1c(N)n(CCCOC)c2nc3ccccc3nc12`, the inhibition is 72.4%.

As to `CCOC(=O)c1c(NC(=O)c2c(N)n(CCCOC)c3nc4ccccc4nc23)sc2c1CCCC2`, the inhibition amounted to 118%.

As for `O=C(N/N=C/c1c(O)n(Cc2ccc(F)cc2)c(=S)[nH]c1=O)c1ccncc1`, the inhibition was 73.8%.

Consider `COc1ccc(Cn2c(N)c(C(=O)NCc3ccco3)c3nc4ccccc4nc32)cc1`, for which the inhibition turned out to be 55%.

With `CC(C)(C)OC(=O)c1c(N)n(Cc2ccco2)c2nc3ccccc3nc12`, the inhibition stood at 124%.

On to `CCCOC(=O)c1c(N)n(Cc2cccs2)c2nc3ccccc3nc12`, for which the inhibition turned out to be 123%.

For the compound `CC(C)CCOC(=O)c1c(N)n(CC2CCCO2)c2nc3ccccc3nc12` (configuration not stated), the inhibition came out at 100%.

As for `O=C1NC(=O)C2=Cc3ccc(O)cc3OC2(O)N1` (configuration not stated), the inhibition amounted to 70.6%.

On to `O=C1NC(=O)N(c2ccccc2)C(=O)/C1=C\C=C\c1ccccc1`, for which the inhibition came to 56.8%.

Turning to `CCCCOCCCn1c(N)c(C(=O)OCCOC)c2nc3ccccc3nc21`, the inhibition was determined as 130%.

For the compound `Nc1c(C(=O)NCc2ccco2)c2nc3ccccc3nc2n1CCN1CCOCC1`, the inhibition stood at 136%.

For `CCOC(=O)c1c(N)n(CCCOC(=O)c2ccco2)c2nc3ccccc3nc12`, the inhibition was found to be 149%.

In the case of `CC(C)CNC(=O)c1c(N)n(Cc2ccc3c(c2)OCO3)c2nc3ccccc3nc12`, the inhibition turned out to be 65.2%.

As for `Oc1cc2c(cc1O)[C@H]1c3ccccc3CN[C@@H]1CC2`, the inhibition is 52.1%.

Turning to `Cc1ccc(-n2c(O)c(/C=C/C=Nc3ccccc3)c(=O)[nH]c2=O)cc1`, the inhibition was 62.6%.

`CCCCn1c(NC(=O)c2ccco2)c(C(=O)OCC)c2nc3ccccc3nc21`: the inhibition came out at 65.7%.

Consider `O=C(N/N=C/c1c(O)n(C2CC2)c(=S)[nH]c1=O)c1ccccc1O`, for which the inhibition was found to be 80.2%.

On to `CC(C)OCCCNC(=O)c1c(N)n(CC2CCCO2)c2nc3ccccc3nc12` (configuration not stated), for which the inhibition amounted to 71.5%.

Take `CCCCn1c(N)c(C(=O)OCCOC)c2nc3ccccc3nc21`: the inhibition turned out to be 134%.

For `Nc1c(C(=O)NCCc2ccccc2)c2nc3ccccc3nc2n1CCN1CCOCC1`, the inhibition was determined as 102%.

As to `Nc1c(C(=O)OC2CCCCC2)c2nc3ccccc3nc2n1CC1CCCO1` (configuration not stated), the inhibition is 130%.

Consider `CC(C)n1c(O)c(C2c3cc(Cl)ccc3Oc3[nH]c(=O)n(C(C)C)c(=O)c32)c(=O)[nH]c1=O` (configuration not stated), for which the inhibition worked out at 75.3%.
